Measurements taken from patent US20250382268A1, “METHODS AND COMPOSITIONS FOR SELECTIVELY INHIBITING PATHOGENIC MICROBES” (priority 2019, published 2025).
Like-named read-outs stand apart in the source and are kept apart here.

System: B. subtilis cells

Row | Structure (SMILES) | cell wall disruption by FM 4-64 dye | cell wall disruption by FM 4-64 dye (B. subtilis cells, fluorescence microscope, FIG. 1C)
1 | Brc1ccc2[nH]cc(Sc3ccccc3Br)c2c1 [Compound 174I, 5-bromo-3-((2-bromophenyl)thio)-1H-indole] | aggregation and cell wall disruption | 
2 | CC[C@H](C)[C@H](NC(=O)CN)C(=O)NCC(=O)N[C@@H](C)C(=O)N[C@H](C(=O)N[C@@H](CC(C)C)C(=O)N[C@@H](CCCCN)C(=O)N[C@H](C(=O)N[C@@H](CC(C)C)C(=O)N[C@H](C(=O)N[C@H](C(=O)NCC(=O)N[C@@H](CC(C)C)C(=O)N1CCC[C@H]1C(=O)N[C@@H](C)C(=O)N[C@@H](CC(C)C)C(=O)N[C@H](C(=O)N[C@@H](CO)C(=O)N[C@@H](Cc1c[nH]c2ccccc12)C(=O)N[C@H](C(=O)N[C@@H](CCCCN)C(=O)N[C@@H](CCCNC(=N)N)C(=O)N[C@@H](CCCCN)C(=O)N[C@@H](CCCNC(=N)N)C(=O)N[C@@H](CCC(N)=O)C(=O)N[C@@H](CCC(N)=O)C(N)=O)[C@@H](C)CC)[C@@H](C)CC)[C@@H](C)O)[C@@H](C)O)C(C)C)C(C)C [melittin, reference compound] |  | aggregation and cell wall disruption
